Reference: patent EP4711371A1 (priority 2023, dated 2024)

B1: NECTIN4-ADC-1: "Ab refers to the PADCEV antibody" (conjugate, chains of the INN, looked up)
heavy: EVQLVESGGGLVQPGGSLRLSCAASGFTFSSYNMNWVRQAPGKGLEWVSYISSSSSTIYYADSVKGRFTISRDNAKNSLSLQMNSLRDEDTAVYYCARAYYYGMDVWGQGTTVTVSSASTKGPSVFPLAPSSKSTSGGTAALGCLVKDYFPEPVTVSWNSGALTSGVHTFPAVLQSSGLYSLSSVVTVPSSSLGTQTYICNVNHKPSNTKVDKRV[human IgG1 Fc not printed]
light: DIQMTQSPSSVSASVGDRVTITCRASQGISGWLAWYQQKPGKAPKFLIYAASTLQSGVPSRFSGSGSGTDFTLTISSLQPEDFATYYCQQANSFPPTFGGGTKVEIKRTVAAPSVFIFPPSDEQLKSGTASVVCLLNNFYPREAKVQWKVDNALQSGNSQESVTEQDSKDSTYSLSSTLTLSKADYEKHKVYACEVTHQGLSSPVTKSFNRGEC
modifications: drug-linker conjugate
B2: NECTIN4-ADC-3: "Ab refers to the PADCEV antibody" (conjugate, chains of the INN, looked up)
heavy: EVQLVESGGGLVQPGGSLRLSCAASGFTFSSYNMNWVRQAPGKGLEWVSYISSSSSTIYYADSVKGRFTISRDNAKNSLSLQMNSLRDEDTAVYYCARAYYYGMDVWGQGTTVTVSSASTKGPSVFPLAPSSKSTSGGTAALGCLVKDYFPEPVTVSWNSGALTSGVHTFPAVLQSSGLYSLSSVVTVPSSSLGTQTYICNVNHKPSNTKVDKRV[human IgG1 Fc not printed]
light: DIQMTQSPSSVSASVGDRVTITCRASQGISGWLAWYQQKPGKAPKFLIYAASTLQSGVPSRFSGSGSGTDFTLTISSLQPEDFATYYCQQANSFPPTFGGGTKVEIKRTVAAPSVFIFPPSDEQLKSGTASVVCLLNNFYPREAKVQWKVDNALQSGNSQESVTEQDSKDSTYSLSSTLTLSKADYEKHKVYACEVTHQGLSSPVTKSFNRGEC
modifications: drug-linker conjugate
B3: NECTIN4-ADC-2: "Ab refers to the PADCEV antibody" (conjugate, chains of the INN, looked up)
heavy: EVQLVESGGGLVQPGGSLRLSCAASGFTFSSYNMNWVRQAPGKGLEWVSYISSSSSTIYYADSVKGRFTISRDNAKNSLSLQMNSLRDEDTAVYYCARAYYYGMDVWGQGTTVTVSSASTKGPSVFPLAPSSKSTSGGTAALGCLVKDYFPEPVTVSWNSGALTSGVHTFPAVLQSSGLYSLSSVVTVPSSSLGTQTYICNVNHKPSNTKVDKRV[human IgG1 Fc not printed]
light: DIQMTQSPSSVSASVGDRVTITCRASQGISGWLAWYQQKPGKAPKFLIYAASTLQSGVPSRFSGSGSGTDFTLTISSLQPEDFATYYCQQANSFPPTFGGGTKVEIKRTVAAPSVFIFPPSDEQLKSGTASVVCLLNNFYPREAKVQWKVDNALQSGNSQESVTEQDSKDSTYSLSSTLTLSKADYEKHKVYACEVTHQGLSSPVTKSFNRGEC
modifications: drug-linker conjugate
B4: NECTIN4-ADC-4: "Ab refers to the PADCEV antibody" (conjugate, chains of the INN, looked up)
heavy: EVQLVESGGGLVQPGGSLRLSCAASGFTFSSYNMNWVRQAPGKGLEWVSYISSSSSTIYYADSVKGRFTISRDNAKNSLSLQMNSLRDEDTAVYYCARAYYYGMDVWGQGTTVTVSSASTKGPSVFPLAPSSKSTSGGTAALGCLVKDYFPEPVTVSWNSGALTSGVHTFPAVLQSSGLYSLSSVVTVPSSSLGTQTYICNVNHKPSNTKVDKRV[human IgG1 Fc not printed]
light: DIQMTQSPSSVSASVGDRVTITCRASQGISGWLAWYQQKPGKAPKFLIYAASTLQSGVPSRFSGSGSGTDFTLTISSLQPEDFATYYCQQANSFPPTFGGGTKVEIKRTVAAPSVFIFPPSDEQLKSGTASVVCLLNNFYPREAKVQWKVDNALQSGNSQESVTEQDSKDSTYSLSSTLTLSKADYEKHKVYACEVTHQGLSSPVTKSFNRGEC
modifications: drug-linker conjugate

Experiments:
[1] = system: MDA-MB-453; test: In vitro proliferation inhibition assay of ligand-drug conjugates targeting NECTIN-4, Test Example 4; format: cell-based, human; settings: NECTIN4 ADC, 3 days, CTG
Description: The cell lines used in the experiment were human breast cancer T47D and MDA-MB-453 cell lines that highly expressed NECTIN4. Cell suspensions were prepared in fresh cell culture medium containing 10% FBS and then diluted to a density of 5×10^4 cells/mL, 10×10^4 cells/mL. 100 µL per well was added to a 96 well cell culture plate (Thermo catalog number: 167425) and cultured at 37 °C with 5% carbon dioxide for 24 hours.
The ADC samples were prepared at 10 µM stock solutions in PBS as the initial concentration, and a five-fold gradient dilution was performed using PBS, for a total of nine concentrations. 50 µL of culture medium was aspirated from each well, and 50 µL of the above ADC solution was added, resulting in an initial ADC concentration of 5 µM in each well and a final volume of 100 µL per well. The cells were cultured at 37°C in 5% CO2 for 3 days. 100 µL of CTG (Celltiter-Glo® Luminescent Cell Viability Assay, Promega, Catalog No. G7573) was added per well. The cells were mixed on a decolorizing shaker at room temperature for 30 minutes, incubated for 10 minutes, and chemiluminescence was read on a microplate reader (TECAN, Spark). Data were analyzed using Graphpad Prism 5 software. Table 17 IC50 values of the ligand-drug conjugates of the present invention for inhibition of cancer cell proliferation in vitro

[2] = system: Human breast cancer cells MDA-MB-453; test: Antitumor efficacy in the MDA-MB-453 CDX model, Test Example 8; format: in vivo, mice; settings: 5mg/kg single dose, tail vein; for TGI: day 32; for Tumor volume (On the 32st day of administration): PBS 746.80
Excerpt: Test Example 8 Antitumor efficacy of the NECTIN4 ligand-drug conjugate of the present invention in the MDA-MB-453CDX model • 1. […] Tumor growth curves were generated using GraphPad Prism 8.0.2.2.263 software.
Where V0 and VT are the tumor volumes at the start and end of the experiment, respectively. CRTV and TRTV are the relative tumor volumes of the blank control group (PBS) and the experimental group at the end of the experiment, respectively.

Molecule	IC50 [1] [nM]	TGI [2] [%]	Tumor volume (On the 32st day of administration) [2] [mm^3]
B1	60.3	59.99	298.85
B2	38.8	–	–
B3	9.2	99.66	2.49
B4	~200	–	–
